# Assay results taken from the supplement of paper PMC8728848.
# Some of the results follow.
# B1: GH98CBM (Clostridium perfringens) (protein)
# chain: EVYALEESRDVYLSDLDWLNATHGDDTKSKIVQKNHPFTPGNNNQSTKISLKMEDGSISEFEKGLGTIAGSPSTITYDISGAGVTKFFSYLGIDRSANPINEQYAKVDKIEVVVDGKVIYSTINQFPNGLTYETPAIKVDLNIPENAKRLQLKSYAGEKTWGDEVVYADAKFTAKGDFVN
# Tests used:
# Assay in all cases: glycan array binding signal (z-score within array); higher = stronger binding
# Details in all cases: glycan notation: IUPAC condensed, linker removed
# [1] = biological target: Fuc(a1-3)[Gal(b1-4)]GlcNAc(b1-2)Man(a1-6)[Gal(b1-4)GlcNAc(b1-2)Man(a1-3)]Man(b1-4)GlcNAc(b1-4)GlcNAc
# How it was run: (§1)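 The binding signal is a Z-score computed within each array and averaged over linkers. Arrays of the same protein sequence at different concentrations or buffers were also averaged together. Data originate from 3228 arrays in the Consortium for Functional Glycomics database, kept only where the protein sequence was available.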
# [2] = biological target: Fuc(a1-3)[Gal(b1-4)]GlcNAc(b1-3)Gal(b1-3)[Fuc(a1-4)]GlcNAc
# How it was run: as §1
# [3] = biological target: Fuc(a1-3)[Gal(b1-4)]GlcNAc(b1-4)Gal(b1-4)[Fuc(a1-3)]GlcNAc
# How it was run: as §1
# [4] = biological target: Fuc(a1-3)[Gal(b1-4)]GlcNAc(b1-4)Gal(b1-4)[Fuc(a1-3)]GlcNAc(b1-4)Gal(b1-4)[Fuc(a1-3)]GlcNAc
# How it was run: as §1
# [5] = biological target: Fuc(a1-3)[Gal(b1-4)]GlcNAc6S
# How it was run: as §1
# [6] = biological target: Fuc(a1-3)[Gal3S(b1-4)]Glc6S
# How it was run: as §1
# [7] = biological target: Fuc(a1-3)[Gal3S(b1-4)]GlcNAc
# How it was run: as §1
# [8] = biological target: Fuc(a1-3)[Gal3S(b1-4)]GlcNAc6S
# How it was run: as §1
# [9] = biological target: Fuc(a1-3)[GalNAc(b1-4)]GlcNAc
# How it was run: as §1
# [10] = biological target: Fuc(a1-4)GlcNAc
# How it was run: as §1
# [11] = biological target: Fuc(b1-3)GlcNAc
# How it was run: as §1
# [12] = biological target: Gal(a1-2)Gal
# How it was run: as §1
# [13] = biological target: Gal(a1-3)Gal
# How it was run: as §1
# [14] = biological target: Gal(a1-3)Gal(b1-3)GlcNAc
# How it was run: as §1
# [15] = biological target: Gal(a1-3)Gal(b1-4)Glc
# How it was run: as §1
# [16] = biological target: Gal(a1-3)Gal(b1-4)GlcNAc
# How it was run: as §1
# [17] = biological target: Gal(a1-3)Gal(b1-4)[Fuc(a1-3)]GlcNAc
# How it was run: as §1
# [18] = biological target: Gal(a1-3)GalNAc
# How it was run: as §1
# [19] = biological target: Gal(a1-3)[Gal(a1-4)]Gal(b1-4)GlcNAc
# How it was run: as §1
# [20] = biological target: Gal(a1-4)Gal(b1-4)Glc
# How it was run: as §1
# [21] = biological target: Gal(a1-4)Gal(b1-4)GlcNAc
# How it was run: as §1
# [22] = biological target: Gal(a1-4)GlcNAc
# How it was run: as §1
# [23] = biological target: Gal(a1-6)Glc
# How it was run: as §1
# [24] = biological target: Gal(b1-2)Gal
# How it was run: as §1
# [25] = biological target: Gal(b1-3)Gal
# How it was run: as §1
# [26] = biological target: Gal(b1-3)Gal(b1-4)GlcNAc
# How it was run: as §1
# [27] = biological target: Gal(b1-3)GalNAc
# How it was run: as §1
# [28] = biological target: Gal(b1-3)GalNAc(b1-3)Gal(a1-4)Gal(b1-4)Glc
# How it was run: as §1
# [29] = biological target: Gal(b1-3)GalNAc(b1-4)Gal(b1-4)Glc
# How it was run: as §1
# [30] = biological target: Gal(b1-3)GalNAc(b1-4)[Neu5Ac(a2-3)]Gal(b1-4)Glc
# How it was run: as §1
# [31] = biological target: Gal(b1-3)GlcNAc
# How it was run: as §1
# [32] = biological target: Gal(b1-3)GlcNAc(b1-2)Man(a1-3)[Gal(b1-3)GlcNAc(b1-2)Man(a1-6)]Man(b1-4)GlcNAc(b1-4)GlcNAc
# How it was run: as §1
# [33] = biological target: Gal(b1-3)GlcNAc(b1-3)Gal(b1-3)GlcNAc
# How it was run: as §1
# [34] = biological target: Gal(b1-3)GlcNAc(b1-3)Gal(b1-4)Glc
# How it was run: as §1
# [35] = biological target: Gal(b1-3)GlcNAc(b1-3)Gal(b1-4)GlcNAc
# How it was run: as §1
# [36] = biological target: Gal(b1-3)[Fuc(a1-4)]GlcNAc
# How it was run: as §1
# [37] = biological target: Gal(b1-3)[Fuc(a1-4)]GlcNAc(b1-3)Gal(b1-3)[Fuc(a1-4)]GlcNAc
# How it was run: as §1
# [38] = biological target: Gal(b1-3)[Fuc(a1-4)]GlcNAc(b1-3)Gal(b1-4)GlcNAc
# How it was run: as §1
binder,measurement,setting,value
B1,glycan array binding signal (z-score),[1],-0.101
same,glycan array binding signal (z-score),[2],-0.195
same,glycan array binding signal (z-score),[3],-0.105
same,glycan array binding signal (z-score),[4],-0.235
same,glycan array binding signal (z-score),[5],-0.222
same,glycan array binding signal (z-score),[6],-0.115
same,glycan array binding signal (z-score),[7],-0.126
same,glycan array binding signal (z-score),[8],-0.157
same,glycan array binding signal (z-score),[9],-0.188
same,glycan array binding signal (z-score),[10],-0.189
same,glycan array binding signal (z-score),[11],0.118
same,glycan array binding signal (z-score),[12],-0.078
same,glycan array binding signal (z-score),[13],-0.066
same,glycan array binding signal (z-score),[14],-0.253
same,glycan array binding signal (z-score),[15],0.187
same,glycan array binding signal (z-score),[16],-0.104
same,glycan array binding signal (z-score),[17],-0.176
same,glycan array binding signal (z-score),[18],-0.163
same,glycan array binding signal (z-score),[19],-0.31
same,glycan array binding signal (z-score),[20],-0.176
same,glycan array binding signal (z-score),[21],-0.235
same,glycan array binding signal (z-score),[22],-0.286
same,glycan array binding signal (z-score),[23],-0.28
same,glycan array binding signal (z-score),[24],-0.198
same,glycan array binding signal (z-score),[25],-0.211
same,glycan array binding signal (z-score),[26],0.136
same,glycan array binding signal (z-score),[27],-0.259
same,glycan array binding signal (z-score),[28],-0.165
same,glycan array binding signal (z-score),[29],0.118
same,glycan array binding signal (z-score),[30],-0.231
same,glycan array binding signal (z-score),[31],0.36
same,glycan array binding signal (z-score),[32],-0.222
same,glycan array binding signal (z-score),[33],-0.104
same,glycan array binding signal (z-score),[34],-0.271
same,glycan array binding signal (z-score),[35],-0.181
same,glycan array binding signal (z-score),[36],-0.148
same,glycan array binding signal (z-score),[37],-0.194
same,glycan array binding signal (z-score),[38],-0.215
